# Some of the results follow. The full chains were built here from the parent and the listed change. Values near 0.05 are background.
# B1: TEV protease; numbered along this chain (parent)
# chain: MGESLFKGPRDYNPISSSICHLTNESDGHTTSLYGIGFGPFIITNKHLFRRNNGTLVVQSLHGVFKVKDTTTLQQHLVDGRDMIIIRMPKDFPPFPQKLKFREPQREERICLVTTNFQTKSMSSMVSDTSCTFPSGDGIFWKHWIQTKDGQCGSPLVSTRDGFIVGIHSASNFTNTNNYFTSVPKNFMELLTNQEAQQWVSGWRLNADSVLWGGHKVFMVKPEEPFQPVKEATQL
# Variants of: B1
# Experiment: raw area under fraction-flipped curve 0-4 h after induction (AUC4h, not background-subtracted), DNA-recorder readout of cleavage of the substrate (dimensionless); higher = more cleavage of the substrate by the protease variant
# Conditions: temperature: 34 °C; time window: 0-4 h after rhamnose induction
# Experimental: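 In vivo DNA recorder in E. coli TOP10(DE3) ΔrhaA at 34 °C. Each TEVp single-site mutant (parent TEVp 0) is paired with a single-site variant of the 7-mer TEVs (canonical ENLYFQ|S). The substrate sits between flexible linkers in a Bxb1-sfGFP-TEVs-SsrA fusion, so cleavage stabilises Bxb1 and speeds flipping of a recombination array, read by NGS. The value is the raw area under the fraction-flipped curve over 0-4 h after rhamnose induction (AUC4h), with ≥20 reads per time point. It is not background-subtracted; inactive controls average about 0.047.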
# 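Also: Bxb1 expression induced with 0.2% (w/v) L-rhamnose at OD600 near 0.5, cultures sampled hourly, flipped fraction per protease–substrate barcode pair counted by paired-end Illumina sequencing.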
Variant,area with substrate ENAYFQS,area with substrate ENCYFQS,area with substrate ENDYFQS,area with substrate ENFYFQS,area with substrate ENGYFQS,area with substrate ENHYFQS,area with substrate ENIYFQS,area with substrate ENKYFQS,area with substrate ENMYFQS,area with substrate ENNYFQS,area with substrate ENQYFQS,area with substrate ENRYFQS,area with substrate ENSYFQS,area with substrate ENTYFQS,area with substrate ENVYFQS,area with substrate ENYYFQS,area with substrate ENEYFQS,area with substrate ENPYFQS,area with substrate ENWYFQS
MGESLFKGPRDYNPISSSICHLTNESDGHTTSLYGIGFGPFIITNKHLFRRNNGTLVVQSLHGVFKVKDTTTLQQHLVDGRDMIIIRMPKDFPPFPQKLKFREPQREERICLVTTNFQTKSMSSMVSDTSCTFPSGDGIFWKHWIQTKDGQCGSPLVSTRDGFIVGIHSASNFTNTNNYFTSVPKNFMELLTNQEAQQWVSGWRLNADSVLWGGPKVFMVKPEEPFQPVKEATQL [H215P],0.0522,0.0608,0.0701,0.0494,0.0588,0.0549,0.0582,0.0494,0.0352,0.033,0.0514,0.0344,0.0641,0.0035,0.0551,0.0666,–,–,–
MGESLFKGPRDYNPISSSICHLTNESDGHTTSLYGIGFGPFIITNKHLFRRNNGTLVVQSLHGVFKVKDTTTLQQHLVDGRDMIIIRMPKDFPPFPQKLKFREPQREERICLVTTNFQTKSMSSMVSDTSCTFPSGDGIFWKHWIQTKDGQCGSPLVSTRDGFIVGIHSASNFTNTNNYFTSVPKNFMELLTNQEAQQWVSGWRLNADSVLWGGHKFFMVKPEEPFQPVKEATQL [V217F],0.0376,–,0.0622,–,–,0.0347,–,0.0649,–,0.069,–,0.0638,–,–,0.0614,–,–,–,–
MGESLFKGPRDYNPISSSICHLTNESDGHTTSLYGIGFGPFIITNKHLFRRNNGTLVVQSLHGVFKVKDTTTLQQHLVDGRDMIIIRMPKDFPPFPQKLKFREPQREERICLVTTNFQTKSMSSMVSDTSCTFPSGDGIFWKHWIQTKDGQCGSPLVSTRDGFIVGIHSASNFTNTNNYFTSVPKNFMELLTNQEAQQWVSGWRLNADSVLWGGHKKFMVKPEEPFQPVKEATQL [V217K],0.0516,0.0383,0.0659,0.0639,0.0531,–,0.0531,–,–,–,–,–,–,0.0592,0.0539,0.054,0.0524,–,–
MGESLFKGPRDYNPISSSICHLTNESDGHTTSLYGIGFGPFIITNKHLFRRNNGTLVVQSLHGVFKVKDTTTLQQHLVDGRDMIIIRMPKDFPPFPQKLKFREPQREERICLVTTNFQTKSMSSMVSDTSCTFPSGDGIFWKHWIQTKDGQCGSPLVSTRDGFIVGIHSASNFTNTNNYFTSVPKNFMELLTNQEAQQWVSGWRLNADSVLWGGHKSFMVKPEEPFQPVKEATQL [V217S],0.061,0.0517,0.0538,0.0586,–,0.0598,0.0736,0.0521,0.0707,–,0.0592,–,0.0521,0.0679,–,0.0219,–,0.0442,0.0591
MGESLFKGPRDYNPISSSICHLTNESDGHTTSLYGIGFGPFIITNKHLFRRNNGTLVVQSLHGVFKVKDTTTLQQHLVDGRDMIIIRMPKDFPPFPQKLKFREPQREERICLVTTNFQTKSMSSMVSDTSCTFPSGDGIFWKHWIQTKDGQCGSPLVSTRDGFIVGIHSASNFTNTNNYFTSVPKNFMELLTNQEAQQWVSGWRLNADSVLWGGHKTFMVKPEEPFQPVKEATQL [V217T],0.0554,–,–,0.0627,–,0.0594,0.076,0.0703,–,0.0823,0.0576,–,0.0488,0.0502,0.0421,0.0644,0.0607,0.0636,–
MGESLFKGPRDYNPISSSICHLTNESDGHTTSLYGIGFGPFIITNKHLFRRNNGTLVVQSLHGVFKVKDTTTLQQHLVDGRDMIIIRMPKDFPPFPQKLKFREPQREERICLVTTNFQTKSMSSMVSDTSCTFPSGDGIFWKHWIQTKDGQCGSPLVSTRDGFIVGIHSASNFTNTNNYFTSVPKNFMELLTNQEAQQWVSGWRLNADSVLWGGHKYFMVKPEEPFQPVKEATQL [V217Y],0.0472,0.0564,0.0463,–,0.0524,0.0546,–,–,–,0.0582,0.048,0.0656,0.0607,–,0.0587,0.0413,0.0574,–,0.0491
MGESLFKGPRDYNPISSSICHLTNESDGHTTSLYGIGFGPFIITNKHLFRRNNGTLVVQSLHGVFKVKDTTTLQQHLVDGRDMIIIRMPKDFPPFPQKLKFREPQREERICLVTTNFQTKSMSSMVSDTSCTFPSGDGIFWKHWIQTKDGQCGSPLVSTRDGFIVGIHSASNFTNTNNYFTSVPKNFMELLTNQEAQQWVSGWRLNADSVLWGGHKVMMVKPEEPFQPVKEATQL [F218M],0.0756,–,0.0609,0.0666,–,–,0.102,–,–,0.0567,0.0577,0.0496,–,–,–,–,0.0622,0.0625,–
MGESLFKGPRDYNPISSSICHLTNESDGHTTSLYGIGFGPFIITNKHLFRRNNGTLVVQSLHGVFKVKDTTTLQQHLVDGRDMIIIRMPKDFPPFPQKLKFREPQREERICLVTTNFQTKSMSSMVSDTSCTFPSGDGIFWKHWIQTKDGQCGSPLVSTRDGFIVGIHSASNFTNTNNYFTSVPKNFMELLTNQEAQQWVSGWRLNADSVLWGGHKVFMVWPEEPFQPVKEATQL [K221W],0.0622,0.0654,0.0636,–,0.0614,–,–,–,–,–,0.0682,–,0.0596,0.0891,0.0616,–,0.0697,–,–
MGESLFKGPRDYNPISSSICHLTNESDGHTTSLYGIGFGPFIITNKHLFRRNNGTLVVQSLHGVFKVKDTTTLQQHLVDGRDMIIIRMPKDFPPFPQKLKFREPQREERICLVTTNFQTKSMSSMVSDTSCTFPSGDGIFWKHWIQTKDGQCGSPLVSTRDGFIVGIHSASNFTNTNNYFTSVPKNFMELLTNQEAQQWVSGWRLNADSVLWGGHKVFMVKPSEPFQPVKEATQL [E223S],0.0643,–,–,0.0372,–,0.0606,0.101,0.065,–,0.0593,0.0635,0.0482,0.0525,0.056,–,–,0.0624,–,0.0706
MGESLFKGPRDYNPISSSICHLTNESDGHTTSLYGIGFGPFIITNKHLFRRNNGTLVVQSLHGVFKVKDTTTLQQHLVDGRDMIIIRMPKDFPPFPQKLKFREPQREERICLVTTNFQTKSMSSMVSDTSCTFPSGDGIFWKHWIQTKDGQCGSPLVSTRDGFIVGIHSASNFTNTNNYFTSVPKNFMELLTNQEAQQWVSGWRLNADSVLWGGHKVFMVKPWEPFQPVKEATQL [E223W],0.0586,0.0567,0.0687,0.0515,0.0666,0.0524,–,0.049,–,0.0609,0.0543,0.0542,0.0598,0.07,0.0606,0.0576,0.0561,–,0.0666
